Measured values from the supplement of paper PMC9446081.
About 220 (0.56%) of roughly 39,000 compounds showed activity. This is one part of the list.

tested on: Escherichia coli K-12 BW25113; assay: relative growth (OD600 normalised to plate interquartile mean) (fraction); higher = less growth inhibition, active = 0.2 or less; conditions: 50 µM; LB; incubation time: overnight (16-24 h)
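Further: static incubation at 37 °C against the wild-type strain, values averaged over two biological replicates.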

Row | SMILES | relative growth
1 | CCOc1cc(C)nc(N)n1 | inactive: 0.974
2 | C[C@@H]1CCCCO[C@@H](CN(C)Cc2ccc(Cl)c(Cl)c2)[C@@H](C)CN([C@H](C)CO)C(=O)c2cc(NC(=O)Nc3cccc4ccccc34)ccc2O1 | inactive: 1.04
3 | C[C@@H]1CN([C@H](C)CO)C(=O)c2cc(NC(=O)Nc3ccccc3)ccc2O[C@@H](C)CCCCO[C@H]1CN(C)C(=O)c1ccccc1 | inactive: 1.01
4 | O=C(CO)C(O)C(O)C(O)CO (stereo not given) | inactive: 0.972
5 | COc1ccc(S(=O)(=O)Nc2ccc3c(c2)C(=O)N([C@@H](C)CO)C[C@@H](C)[C@@H](CN(C)CC2CCCCC2)OCCCC[C@H](C)O3)cc1 | inactive: 1.01
6 | C[C@H]1CN([C@@H](C)CO)S(=O)(=O)c2ccc(Br)cc2O[C@@H]1CN(C)CC1CCOCC1 | inactive: 1.04
7 | C[C@@H]1CN([C@@H](C)CO)C(=O)c2cc(NS(=O)(=O)c3ccc(Cl)cc3)ccc2O[C@@H](C)CCCCO[C@H]1CN(C)C(=O)c1ccncc1 | inactive: 1.02
8 | C[C@@H]1CN([C@H](C)CO)C(=O)c2cccc(NC(=O)NC3CCCCC3)c2O[C@H]1CN(C)Cc1ccc(C(F)(F)F)cc1 | inactive: 0.884
9 | COc1ccc(S(=O)(=O)N(C)C[C@@H]2OCCCC[C@@H](C)Oc3ccc(NC(=O)CCCCCC(=O)Nc4ccccc4N)cc3C(=O)N([C@H](C)CO)C[C@@H]2C)cc1 | inactive: 1.01
10 | CC(C)NC(=O)N(C)C[C@@H]1Oc2c(NS(=O)(=O)c3cn(C)cn3)cccc2C(=O)N([C@H](C)CO)C[C@@H]1C | inactive: 1.01
11 | COc1ccccc1CN(C)C[C@@H]1OCc2ccccc2-c2c(n(C)c3ccccc23)C(=O)N([C@H](C)CO)C[C@H]1C | inactive: 1
12 | C[C@@H]1CN([C@@H](C)CO)C(=O)c2cc(NS(C)(=O)=O)ccc2O[C@@H]1CN(C)C(=O)Nc1ccc2c(c1)OCO2 | inactive: 1.02
13 | O=C(C[C@@H]1CC[C@@H](NS(=O)(=O)c2ccc(F)cc2)[C@H](CO)O1)NCc1ccc(Cl)c(Cl)c1 | inactive: 0.986
14 | CC(C)CC#Cc1ccc2c(c1)O[C@@H](CN(C)C(=O)c1ccncc1)[C@@H](C)CN([C@H](C)CO)S2(=O)=O | inactive: 0.968
15 | COc1cccc(CNc2nn[nH]n2)c1OC | inactive: 1
16 | C[C@H](CO)N1C[C@H](C)[C@@H](CN(C)S(=O)(=O)c2cccs2)Oc2ccc(NC(=O)CCN3CCOCC3)cc2C1=O | inactive: 0.981
17 | O=C(NCCN1CCNCC1)c1ccccn1 | inactive: 1.01
18 | NNC(=O)CNC(=O)[C@H]1COc2ccccc2O1 | inactive: 0.935
19 | O=C(Nc1cccc2cccnc12)[C@@H]1[C@H](c2ccc(C(F)(F)F)cc2)CC(=O)N1C(=O)OCc1ccccc1 | inactive: 1.02
20 | CCCNC(=O)N1C[C@]2(CCN(CC2)S(=O)(=O)c2ccc(cc2)OC)c2c(n(c3cc(ccc23)OC)C)[C@@H]1CO | inactive: 1.04
21 | Cc1occc1C(=O)NNC(=O)C1CC1 | inactive: 1.03
22 | CCS(=O)(=O)N1C[C@]2(CN(C2)C(=O)Nc2ccc(cc2F)F)c2c(n(c3cc(ccc23)OC)C)[C@@H]1CO | inactive: 1

Row | SMILES | relative growth
23 | Nc1cc(=O)[nH]c(=O)n1Cc1ccccc1 | inactive: 1
24 | COCC(=O)N(C)C[C@H]1Oc2cc(-c3ccc(C#N)cc3)ccc2S(=O)(=O)N([C@@H](C)CO)C[C@H]1C | inactive: 1
25 | O=C(C[C@@H]1CC[C@H]2[C@@H](COC[C@H](O)CN2S(=O)(=O)c2ccc(Cl)cc2)O1)NCCN1CCCC1 | inactive: 1
26 | O=C(C[C@H]1CC[C@H]2[C@@H](COC[C@@H](O)CN2C(=O)Nc2ccc3c(c2)OCO3)O1)N1CCN(c2ccccc2)CC1 | inactive: 1.02
27 | Cn1cnc(S(=O)(=O)N2C[C@H](O)COC[C@@H]3O[C@H](CC(=O)NCc4cccc(F)c4)CC[C@H]32)c1 | inactive: 0.988
28 | Cc1cn([C@H]2C[C@@H](NC(=O)C(C)(C)C)[C@@H](CO)O2)c(=O)[nH]c1=O | inactive: 1.02
29 | COc1ccc(S(=O)(=O)N(C)C[C@@H]2Oc3ccc(NC(=O)C4CC4)cc3CC(=O)N([C@@H](C)CO)C[C@H]2C)cc1 | inactive: 0.999
30 | C[C@@H]1CN([C@H](C)CO)C(=O)Cc2cc(NC(=O)C3CC3)ccc2O[C@@H]1CN(C)C(=O)NC1CCCCC1 | inactive: 0.991
31 | C[C@@H]1CN([C@@H](C)CO)C(=O)c2cccc(NC(=O)C3CCOCC3)c2O[C@H]1CN(C)Cc1ccc(-c2ccccc2)cc1 | inactive: 1.04
32 | COc1ccc(NC(=O)N(C)C[C@H]2Oc3c(NS(C)(=O)=O)cccc3C(=O)N([C@@H](C)CO)C[C@H]2C)cc1 | inactive: 1.01
33 | Cn1c(=O)c2c(nc(S(C)(=O)=O)n2C)n(C)c1=O | inactive: 1
34 | COc1ccc(S(=O)(=O)Nc2ccc3c(c2)C(=O)N([C@@H](C)CO)C[C@H](C)[C@H](CN(C)C(=O)Nc2c(C)noc2C)O3)cc1 | inactive: 0.985
35 | C[C@@H]1CN([C@H](C)CO)C(=O)CCCn2nncc2CO[C@H]1CN(C)S(=O)(=O)c1ccc2c(c1)OCCCO2 | inactive: 1
36 | C[C@H](CO)N1C[C@H](C)[C@@H](CN(C)S(C)(=O)=O)OCCCC[C@H](C)Oc2ccc(NC(=O)Nc3ccc(C(F)(F)F)cc3)cc2C1=O | inactive: 0.998
37 | C[C@@H]1CCCCO[C@H](CN(C)C(=O)C2CCCCC2)[C@@H](C)CN([C@@H](C)CO)C(=O)c2cc(NS(=O)(=O)c3ccc(F)cc3)ccc2O1 | inactive: 1.04
38 | COc1ccc(NC(=O)N(C)C[C@H]2OCCCC[C@H](C)Oc3ccc(NC(=O)Nc4ccc(F)cc4)cc3C(=O)N([C@@H](C)CO)C[C@H]2C)cc1 | inactive: 1.01
39 | Cc1ccc(S(=O)(=O)N(C)C[C@H]2Oc3c(NS(=O)(=O)c4ccccc4)cccc3C(=O)N([C@@H](C)CO)C[C@@H]2C)cc1 | inactive: 0.989
40 | Oc1ccnc(S)n1 | inactive: 1.08
41 | Cc1c(C)c(C)c(CN)c(C)c1C | inactive: 1.02
42 | O=C(Nc1cccc2cccnc12)[C@@H]1[C@H](c2ccc(I)cc2)CC(=O)N1C(=O)OCc1ccccc1 | inactive: 1.03
43 | C[C@@H]1CN([C@H](C)CO)C(=O)c2cc(NC(=O)CCC(F)(F)F)ccc2O[C@@H]1CN(C)S(C)(=O)=O | inactive: 0.993
44 | O=C(C[C@@H]1CC[C@@H]2[C@H](COC[C@H](O)CN2C(=O)c2ccccc2)O1)NCCCN1CCOCC1 | inactive: 1.01

Row | SMILES | relative growth
45 | C[C@H]1CN([C@@H](C)CO)C(=O)c2cc(NC(=O)c3ccncc3)ccc2O[C@H]1CN(C)Cc1ccc(Oc2ccccc2)cc1 | inactive: 1
46 | C[C@H](CO)N1C[C@H](C)[C@@H](CN(C)Cc2ccc(Cl)c(Cl)c2)Oc2ccc(NC(=O)Cn3cnnn3)cc2CC1=O | inactive: 0.952
47 | COc1ccccc1[C@@H](NC(=O)C1CCN(CCc2ccc(Br)cc2)CC1)c1ccccn1 | inactive: 0.98
48 | CN1Cc2c(CN3CCCC3=O)nn(C)c2C1 | inactive: 1.01
49 | C[C@@H]1CN([C@H](C)CO)C(=O)c2c(c3ccccc3n2C)-c2ccccc2CO[C@@H]1CN(C)C(=O)[C@H](C)c1ccccc1 | inactive: 1
50 | C[C@H]1CN([C@@H](C)CO)S(=O)(=O)c2ccc(C#CC3CC3)cc2O[C@@H]1CN(C)Cc1cccc(F)c1 | inactive: 1.01
51 | C[C@@H]1CN([C@H](C)CO)C(=O)c2cc(NS(C)(=O)=O)ccc2O[C@@H](C)CCCCO[C@H]1CN(C)S(=O)(=O)c1ccc(F)cc1 | inactive: 1.02
52 | CN1C(=O)OC(C)(C)C1=O | inactive: 0.914
53 | C[C@@H]1CN([C@H](C)CO)C(=O)c2cccc(NC(=O)C3CCCCC3)c2O[C@@H]1CN(C)C(=O)Nc1ccc(C(F)(F)F)cc1 | inactive: 0.905
54 | C[C@H]1CN([C@@H](C)CO)C(=O)CCCn2cc(nn2)CO[C@H]1CN(C)C(=O)Nc1ccc2c(c1)OCO2 | inactive: 1
55 | CO[C@H]1CN(C)C(=O)c2cc(NC(=O)NC(C)C)ccc2OC[C@@H](C)N(Cc2ccc(-c3ccccn3)cc2)C[C@@H]1C | inactive: 1
56 | O=C(C[C@H]1CC[C@H]2[C@@H](COC[C@@H](O)CN2S(=O)(=O)c2ccc(Cl)cc2)O1)NCCN1CCCCC1 | inactive: 1
57 | COc1cccc(-c2ccc3c(c2)O[C@H](CN(C)C(=O)C2CC2)[C@H](C)CN([C@@H](C)CO)S3(=O)=O)c1 | inactive: 1
58 | COCCN1C[C@H]2CN(Cc3cnn(C)c3)C[C@H]2C1=O | inactive: 0.991
59 | C[C@@H]1CN([C@@H](C)CO)C(=O)c2cc(C#CCN(C)C)cnc2O[C@@H]1CN(C)C(=O)c1cnccn1 | inactive: 0.996
60 | C[C@@H]1CCCCO[C@H](CN(C)C(=O)Cc2ccccc2)[C@@H](C)CN([C@@H](C)CO)C(=O)c2cc(NS(=O)(=O)c3ccc(F)cc3)ccc2O1 | inactive: 1.02
61 | Cc1noc(C)c1NC(=O)Nc1ccc2c(c1)CC(=O)N([C@@H](C)CO)C[C@@H](C)[C@H](CN(C)Cc1ccc(-c3ccccc3)cc1)O2 | inactive: 0.894
62 | COc1ccc(S(=O)(=O)Nc2ccc3c(c2)C(=O)N([C@H](C)CO)C[C@H](C)[C@H](CN(C)Cc2ccc4c(c2)OCO4)OCCCC[C@H](C)O3)cc1 | inactive: 1
63 | O=C(CN1CCOCC1)N[C@H]1CC[C@@H](CCNC(=O)Nc2cc(F)ccc2F)O[C@@H]1CO | inactive: 0.995
64 | C[C@@H]1CN([C@@H](C)CO)C(=O)c2cccc(NC(=O)c3cnccn3)c2O[C@H]1CN(C)C(=O)Nc1ccc(F)cc1 | inactive: 0.997
65 | C[C@@H]1CCCCO[C@@H](CN(C)C(=O)NC2CCCCC2)[C@@H](C)CN([C@@H](C)CO)C(=O)c2cc(NC(=O)Cc3ccccc3)ccc2O1 | inactive: 1.01
